The list shows a part of the results. Antibody binding of pooled human sera (four to six donors per pool; dilution not stated) to peptides of the Trypanosoma cruzi antigen TSSA on microarrays. Quantile-normalised fluorescence in arbitrary units, mean of duplicate arrays; higher = more binding. No active / inactive call. The uninfected pools are read here as the healthy donors of the same country. The strongest signals lie near the top of the scale (about 60,000).

The test system of this experiment is pooled sera of uninfected people, Colombia. Description: antibody binding signal (normalised fluorescence) (arbitrary fluorescence units); higher = stronger serum antibody binding to peptide. The procedure: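 Microarray of 15-residue peptides over residues 30-55 of Trypanosoma cruzi TSSAII, each with 1 to 10 substitutions at naturally variable positions, probed with one serum pool per country.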
Sequence GTDNKTAAGGTPSPS returned an antibody binding signal of 476. Under GTEKKTATGEAPSPP stands 124; under TEKKAAAGGAPSPPG, 144; under SGKDNKAATGGTPSQ, 328. For SGKDKKPAAGETPSQ the value was 1540; for KEKKPATGEAPSPSG, 160; for GKEKKTAAGGAPSPS, 179.

As for GKDNKAAAGEAPSQP, the antibody binding signal was 186.

In turn, TEKKPATGETPSPSG gave an antibody binding signal of 204. Consider PPSGTEKKAAAGGTP, for which the antibody binding signal was 283.

In turn, EKKTAAGEAPSQPGA came in with an antibody binding signal of 990. The sequence DNKPAAGGAPSPSGA came in with an antibody binding signal of 226.

TPPSGKDNKTATGET came in with an antibody binding signal of 311. Under GTEKKAAAGEAPSQS stands 94.3; under SGTEKKPATGGTPSQ, 293; under GKENKPAAGEAPSQP, 150. Under STPPSGTDKKTATGG stands 205. Take TEKKTAAGGTPSQSG: the antibody binding signal turned out to be 191. Sequence TEKKTAAGETPSPSG yielded an antibody binding signal of 765. For the sequence TEKKPAAGEAPSQSG, the antibody binding signal turned out to be 94.6.

KDKKPATGGTPSQSG showed an antibody binding signal of 92.5. In the case of GKDKKAATGGTPSPS, the antibody binding signal worked out at 303. For PPSGTEKKTATGETP, the antibody binding signal worked out at 149. In turn, TPPSGTENKPAAGET came in with an antibody binding signal of 864. On to GKEKKTAAGGTPSPS, for which the antibody binding signal turned out to be 162.

With SGTEKKAAAGEAPSQ, the antibody binding signal is 110. The sequence KEKKAAAGGAPSPPG registered an antibody binding signal of 98.4. For GTEKKPATGGAPSPP the value was 119; for SGTENKPATGEAPSP, 185; for TDNKPATGGAPSPSG, 207. In the case of NKPATGEAPSPPGAS, the antibody binding signal is 604. For SGKDNKAAAGGTPSP the value was 531; for GTDKKPATGGTPSPS, 296. As for DNKAATGETPSPSGA, the antibody binding signal stood at 169. For TISTPPSGKDKKAAA the value was 139; for SGKENKAATGETPSP, 707.

For GKDNKPAAGETPSQS, the antibody binding signal was determined as 251. For GKENKTAAGGAPSPS the value was 114.

Sequence DNKTATGEAPSPSGA returned an antibody binding signal of 133. For TPPSGTENKTAAGET the value was 349.

Values taken from the supplement of paper PMC10441789.
